No constants are given. Whether binding was seen depends on the method and setting. For some of these results: Binding seen in cells or lysates may run through a third protein. Some binding calls cover weakened binding; strength is not graded here.

Sequences of proteins named here, by UniProt entry; tags and fusion partners are left off. A change or cut given only in a name is not applied to a line headed by its entry.
UniProt O60826: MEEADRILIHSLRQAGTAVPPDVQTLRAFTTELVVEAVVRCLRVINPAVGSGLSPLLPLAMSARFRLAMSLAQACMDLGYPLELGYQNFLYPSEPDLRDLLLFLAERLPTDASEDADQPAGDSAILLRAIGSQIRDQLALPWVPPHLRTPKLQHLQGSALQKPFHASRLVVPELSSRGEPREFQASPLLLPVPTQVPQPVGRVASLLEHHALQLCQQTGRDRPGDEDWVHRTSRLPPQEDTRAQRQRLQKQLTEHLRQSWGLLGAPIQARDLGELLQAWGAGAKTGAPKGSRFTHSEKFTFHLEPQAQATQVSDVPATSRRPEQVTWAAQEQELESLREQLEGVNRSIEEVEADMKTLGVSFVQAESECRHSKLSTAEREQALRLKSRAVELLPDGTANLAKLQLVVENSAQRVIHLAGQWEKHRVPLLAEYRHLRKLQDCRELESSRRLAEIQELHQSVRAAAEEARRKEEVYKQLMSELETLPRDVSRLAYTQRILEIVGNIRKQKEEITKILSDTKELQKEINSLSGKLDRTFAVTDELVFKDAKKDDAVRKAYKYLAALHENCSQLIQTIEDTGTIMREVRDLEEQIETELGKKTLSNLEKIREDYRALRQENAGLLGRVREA

Data on one substance can be found in PMC10312975 (Research Square, 2023).

Experiment [1] addresses VPS35L G902E (cancer-derived), expressed in HEK293T (human) (UniProt Q7Z3J2). Kind of experiment: co-IP; proteins expressed by transfection in HEK293T; Triton X-100 lysis buffer (25 mM HEPES, 100 mM NaCl, 10 mM DTT, 1 mM EDTA, 10% glycerol, 1% Triton X-100); immunoprecipitation of the expressed protein, immunoblot of partners.
The target of experiment [2] is VPS35L W6D, expressed in HEK293T (human) (UniProt Q7Z3J2). Described as above.
Experiment [3] addresses CCDC22 W142D, expressed in HEK293T (human) (UniProt O60826). The experiment is described as above.
Experiment [4] concerns the target VPS35L S829E, expressed in HEK293T (human) (UniProt Q7Z3J2). Described as above.
In experiment [5] the target is CCDC22 F164D, expressed in HEK293T (human) (UniProt O60826). The experiment is described as above.
Experiment [6] concerns the target CCDC22 wild type, expressed in HEK293T (human) (UniProt O60826). The experiment is described as above.
For experiment [7], the target named is VPS35L Δ10, expressed in HEK293T (human) (UniProt Q7Z3J2). Described as above.
The target in experiment [8] is HA-tagged VPS35L W6D, stably expressed in VPS35L knockout Huh-7 cells (human) (UniProt Q7Z3J2). Kind of experiment: co-IP; VPS35L knockout Huh-7 cells stably expressing HA-tagged VPS35L variants; immunoprecipitation of VPS35L, western blot. Background: Immunoblotting shows a protein as a band on a membrane.
Experiment [9] addresses HA-tagged VPS35L G902E, stably expressed in VPS35L knockout Huh-7 cells (human) (UniProt Q7Z3J2). The experiment is described as above.
Experiment [10] deals with HA-tagged VPS35L S829E, stably expressed in VPS35L knockout Huh-7 cells (human) (UniProt Q7Z3J2). The experiment is described as above.
The target in experiment [11] is HA-tagged VPS35L W6D, stably expressed in VPS35L knockout Huh-7 cells (human) (UniProt Q7Z3J2). Kind of experiment: native gel or EMSA; HA immunoprecipitation from stable Huh-7 lines (MRB buffer), elution with HA peptide, blue native 3-12% gel, immunoblot.
Experiment [12] deals with HA-tagged VPS35L G902E, stably expressed in VPS35L knockout Huh-7 cells (human) (UniProt Q7Z3J2). Described as above.
Experiment [13] deals with HA-tagged VPS35L S829E, stably expressed in VPS35L knockout Huh-7 cells (human) (UniProt Q7Z3J2). The description is as above.

As for “COMMD1 (endogenous) (from UniProt Q8N668 1-190)”, the binding result in [1] was “no binding”; in [2], “no binding”; in experiment [3] it was “binds”; in [4], “no binding”; in experiment [5] it was “no binding”; in [6] it was “binds”. Moreover, the binding result in experiment [7], in experiment [8], in experiment [9], in experiment [10], in experiment [11] and in experiment [12] was “no binding” each time. Moreover, the binding entry in experiment [13] is given as “no binding”.
